PubChem BioAssay AID686971 (National Center for Advancing Translational Sciences (NCATS), 2013)
Among all 360,000 compounds or so, about 7,500 (2.1%) were called active. Inconclusive means that the source gave no clear call. Such entries were picked first, then a sample of the others. Calls follow the shape of the dose curve; as a rule, active = well fitted cell-killing curve with a large enough effect; inconclusive = small, poorly fitted or top-dose-only effect, or effect the other way, or another doubt; inactive = no such curve, though single readings can be large or run the other way. Potencies of inconclusive entries are left out as doubtful fits.
Potency is read from the fitted curve at half-maximal effect; tags tell the direction and shape of the fitted curve.

Assay: qHTS for induction of synthetic lethality in tumor cells producing 2HG: qHTS for the HT-1080-IDH1KD cell line;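 as to activity, negative = toxicity: 0% = DMSO wells and -100% = cell-free medium wells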
Details: HT-1080 IDH1 knockdown viability, ATP luminescence, 48 h; activity, negative = toxicity: at 46.1 µM (top of the series) unless noted
Outline: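 In this qHTS, HT-1080 cells depleted of IDH1 are exposed for 48 h at 37 °C to compound titrations. Toxicity is scored from CellTiter-Glo luminescence, with DMSO as full viability and medium alone as none.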
For `Cc1cccc(NCc2ccc(O)c3ncccc23)c1C`, the Potency was inconclusive [cytotoxic, partial curve]. With `O=C(NCC1CCN(Cc2cccc(Cl)c2)CC1)C1CCCN(c2ncnc3c2nc2n3CCCCC2)C1` (stereo not drawn) the Potency was inconclusive [cytotoxic, single point]. In the case of `CCOC(=O)c1c(-c2ccc(OC)cc2)csc1/N=C/C1C(=O)CCCC1=O`, the Potency is reported as active: 18.4 µM. With `Cc1ccc(C(=O)O/N=C/c2c(N3CCOCC3)n(C)c3ccccc23)cc1` the Potency was active: 3.55 µM. For `CCOc1cc(CNCCCN2CCOCC2)ccc1OCC(=O)Nc1cccc2ccccc12`, the Potency was active: 11.2 µM. In the case of `Cn1c(Cc2cccc3ccccc23)nnc1SCC(=O)N1CCN(c2cccc(Cl)c2)CC1`, the Potency is reported as active: 20.6 µM. In the case of `CCOC(=O)C1(C)CCN1C(=O)c1ccccc1OC` (stereo not drawn), the Potency is reported as inconclusive [rising, single point]. For `Cc1ccc(NC(=O)NCCN2CCCCC2)cc1Cl`, the Potency was inconclusive [cytotoxic, single point]. For `CC1(C(=O)Nc2cccc3c2CCCC3)CCN1C(=O)C1(c2ccc(Cl)cc2)CC1` (stereo not drawn), the Potency was inconclusive [cytotoxic, single point]. For `COc1ccc(C(C)(O)c2nc(-c3cccs3)cs2)cc1` (stereo not drawn), the Potency was inconclusive [cytotoxic, single point]. With `COc1ccc(-c2nn(-c3ccccc3)cc2/C=C\C(=O)Nc2ccc(C(=O)O)cc2)cc1` the Potency was inconclusive [cytotoxic, single point]. For `CCOC(=O)CNC(=O)CSc1nnc(-c2ccccc2)c(-c2ccccc2)n1`, the Potency was inconclusive [cytotoxic, single point]. For `CCn1c(SCC(=O)c2c[nH]c3ccccc23)nnc1-c1cccs1`, the Potency was inconclusive [cytotoxic, partial curve]. For `COC(=O)c1c(NC(=O)c2ccccc2)sc(C(=O)c2ccccc2)c1C`, the Potency was inconclusive [cytotoxic, partial curve]. With `O=C1C=CC(=O)C(C2=C3C(=O)N(CCc4ccccc4)CC(=O)N3CCC2)=C1` the Potency was inconclusive [cytotoxic, single point]. With `CCOc1ccccc1N1CCN(C(=O)C(Sc2ccccc2)c2ccccc2)CC1` (stereo not drawn) the Potency was inconclusive [cytotoxic, partial curve]. In the case of `COc1ccc(OC(=O)c2cc(S(=O)(=O)N3CCCC3)ccc2Cl)cc1`, the Potency is reported as inconclusive [rising, single point]. In the case of `COc1ccccc1-c1oc2ccccc2c1-c1ccc2cc[nH]c2c1`, the Potency is reported as inconclusive [cytotoxic, single point]. For `Cc1ccc(NC(=O)COC(=O)c2ccnn2C)cc1`, the Potency was inconclusive [cytotoxic, single point]. For `C/C(CCc1ccco1)=N/NC(=O)CCC(=O)Nc1ccc(Br)cc1`, the Potency was inconclusive [cytotoxic, partial curve]. In the case of `O=c1c2c(C(F)(F)F)cc(C(F)(F)F)nc2[nH]n1-c1ccccc1`, the Potency is reported as inconclusive [cytotoxic, partial curve, poor fit]. In the case of `CCOC(=O)c1[nH]c2cc(OC)c(OC)cc2c1NC(=O)c1ccc2c(c1)OCO2`, the Potency is reported as inconclusive [cytotoxic, single point]. With `COc1cc(NC(=S)Nc2ccccn2)c(OC)cc1Cl` the Potency was inconclusive [cytotoxic, single point]. For `NC(c1csc(NC(=O)Nc2cccc(C(F)(F)F)c2)n1)C1CCCCC1` (stereo not drawn), the Potency was active: 14.6 µM. For `CCc1c(C(=O)NNC(=S)NCC(C)C)csc1C`, the Potency was inconclusive [cytotoxic, partial curve]. With `Cn1nnnc1SCC(=O)Nc1ccc2c(c1)OCO2` the “activity, negative = toxicity” value was inactive: 2.88%. In the case of `Cc1cnc(CN2CCc3c([nH]c4ccccc34)C2C2CCCCC2)[nH]1` (stereo not drawn), the Potency is reported as inconclusive [cytotoxic, single point]. With `CC(=O)Oc1ccc(C2=Cc3ccc(OC(C)=O)cc3OC2C)cc1` (stereo not drawn) the Potency was active: 16.4 µM. For `CN(C)c1ccc(CNc2ncnc3sccc23)cc1`, the Potency was inconclusive [cytotoxic, single point]. With `CCOC(=O)CCCNC(=O)COC(=O)c1cccc(F)c1` the “activity, negative = toxicity” value was inactive: 18.3%. In the case of `CCOC(=O)[C@]12CCC=C1N(Cc1cccc3ccccc13)C(=O)[C@H](CC(=O)N1CCCCC1)C2`, the Potency is reported as inconclusive [cytotoxic, single point]. For `Cc1ccc(NC(=O)NC(=O)CN2C(=O)NC3(CCCCCCC3)C2=O)c(C)c1`, the Potency was inconclusive [cytotoxic, single point]. For `CSc1ccc(NC(=O)Nc2cccn(Cc3ccccc3)c2=O)cc1`, the Potency was inconclusive [cytotoxic, partial curve]. For `Cc1cc(Sc2nc(N)ncc2[N+](=O)[O-])ncn1`, the Potency was active: 6.51 µM. For `COc1ccc(C(=O)C=Cc2ccc(OCc3ccccc3)c(OC)c2)cc1OC`, the Potency was inconclusive [cytotoxic, single point]. In the case of `Cc1ccccc1-c1csc(C(O)(c2ccccc2)C(F)(F)F)n1` (stereo not drawn), the Potency is reported as inconclusive [cytotoxic, single point]. In the case of `COc1ccccc1C(=O)N/C(=C\c1cn(S(=O)(=O)N(C)C)c2ccccc12)C(=O)N1CCOCC1`, the Potency is reported as inconclusive [rising, single point]. With `Cc1cc(C(=O)NP(=O)(N2CCOCC2)N2CCOCC2)c(C)n1-c1ccc(Br)cc1` the “activity, negative = toxicity” value was inactive: 3.48%. With `NC(=O)NC(=O)COC(=O)/C=C/c1cccs1` the “activity, negative = toxicity” value was inactive: 8.77%. In the case of `O=C(CCl)Nc1c(C(=O)Nc2ccc3c(c2)OCCO3)oc2ccccc12`, the Potency is reported as inconclusive [cytotoxic, single point]. With `CCCCCCCNC(=O)C1(CC2CC(c3ccc(Cl)cc3)=NO2)CCN(C(=O)OC(C)(C)C)CC1` (stereo not drawn) the “activity, negative = toxicity” value was inactive: 11.5%. With `COc1ccc(-c2cc(C3CCN(Cc4ccc([N+](=O)[O-])cc4)CC3)[nH]n2)cc1` the Potency was inconclusive [cytotoxic, single point]. For `Cc1cc(=O)n2nc(N3CCC(C(=O)NCc4cccc(Cl)c4)CC3)sc2n1`, the Potency was inconclusive [cytotoxic, single point]. In the case of `O=C(Nc1nnc(-c2ccccn2)o1)c1ccc(Br)cc1`, the “activity, negative = toxicity” value is reported as inactive: -27.1%. With `COc1cc(/C=N/N=C2/C(=O)Nc3ccccc32)cc(OC)c1O` the Potency was inconclusive [cytotoxic, single point]. With `CC1=C(C(=O)N(C(C)C)C(C)C)CC(CC(=O)NCc2cccc3ccccc23)C(=O)N1CCC1=CCCCC1` (stereo not drawn) the Potency was inconclusive [cytotoxic, single point]. With `COc1ccc(-n2c(SC(C)C(=O)Nc3ncc(Cl)cc3Cl)nc3ccccc32)cc1` (stereo not drawn) the Potency was inconclusive [cytotoxic, full curve]. For `CCN(CC)c1ccc(Nc2cc3n(c(=O)n2)CCc2cc(OC)c(OC)cc2-3)cc1`, the Potency was inconclusive [cytotoxic, single point]. For `CC(=O)N1CCc2cc(NC(=O)C3(C)CCN3Cc3ccccc3OC(F)F)ccc21` (stereo not drawn), the Potency was inconclusive [cytotoxic, partial curve]. With `Cc1cccc(COC[C@H](Cc2ccccc2)N2CCN(C(=O)c3cccc(C)c3)CCC2=O)c1` the Potency was inconclusive [cytotoxic, partial curve]. With `O=C1NC(Cc2ccc(O)cc2)c2nc3cc(F)c(F)cc3c(=O)n2-c2cc3ccccc3cc21` (stereo not drawn) the Potency was active: 18.4 µM. With `Cc1cccc(C)c1NC(=O)C(C)Sc1n[nH]c(-c2ccncc2)n1` (stereo not drawn) the “activity, negative = toxicity” value was inactive: 10.7%. For `COc1ccc(-c2csc(N(CCCN(C)C)C(=O)c3ccccc3Cl)n2)cc1`, the Potency was active: 18.4 µM. In the case of `CCCCc1c(-c2ccc(Br)cc2)ncn1CCc1ccccc1OC`, the Potency is reported as active: 7.31 µM. For `COC(=O)c1c(SCc2cccc3ccccc23)nc(=O)[nH]c1C`, the Potency was inconclusive [cytotoxic, partial curve]. For `Cc1n[nH]c(=O)c2c(NC(=O)COC(=O)COc3cccc(Br)c3)oc(C)c12`, the “activity, negative = toxicity” value was inactive: -16.1%. With `CC(=O)c1sc(NC(=O)CCN2C(=O)c3ccccc3C2=O)nc1C` the “activity, negative = toxicity” value was inactive: 2.69%. In the case of `O=C(/C=C/c1ccc(Cl)cc1)NC(=S)Nc1ccc(N2CCOCC2)c(Cl)c1`, the Potency is reported as inconclusive [cytotoxic, partial curve]. In the case of `COc1ccccc1NC(=O)CCNS(=O)(=O)c1ccc2c(c1)CCN2C(C)=O`, the “activity, negative = toxicity” value is reported as inactive: 18.5%. With `CN(Cc1ccc(Br)cc1)CC(O)COc1cccc(Br)c1` (stereo not drawn) the Potency was inconclusive [cytotoxic, single point]. In the case of `Cc1cc(C)n(S(=O)(=O)/C=C/c2ccccc2)n1`, the Potency is reported as inconclusive [cytotoxic, full curve, poor fit]. With `CCOc1ccc(C(=O)NCC(c2cccs2)N(C)C)cc1` (stereo not drawn) the “activity, negative = toxicity” value was inactive: 9.18%. With `Cn1ccnc1C(=O)C1CCCN(Cc2cn[nH]c2-c2ccc(-c3ccccc3)cc2)C1` (stereo not drawn) the Potency was inconclusive [cytotoxic, single point]. For `CCOC(=O)C1(C)CCCN1C(=O)c1csnn1` (stereo not drawn), the “activity, negative = toxicity” value was inactive: -2.14%. With `COc1ccc(NS(=O)(=O)c2cc(NC(=O)C3CCCO3)ccc2N2CCCCC2)cc1` (stereo not drawn) the Potency was inconclusive [cytotoxic, single point]. In the case of `CC(Oc1ccccc1Cl)C(=O)N1CCOCC1` (stereo not drawn), the Potency is reported as inconclusive [rising, partial curve]. For `CC(=O)OCC(=O)C1(O)CCC2C3CC(C)C4=CC(=O)CCC4(C)C3C(O)CC21C` (stereo not drawn), the Potency was inconclusive [rising, partial curve]. In the case of `COc1ccc(N(CCCN2C(=O)c3cccc4cccc(c34)C2=O)C(=O)c2cccnc2)cc1`, the Potency is reported as inconclusive [cytotoxic, partial curve].
